Source: the antibiotic and cytotoxicity screens of Wong et al. (2023)
The other results are listed elsewhere or left out.

How the values were obtained:
HSkMC = human skeletal muscle cells; assay: cytotoxicity call (relative viability < 0.9); settings: 10 µM
HepG2 = assay: cytotoxicity call (relative viability < 0.9); settings: 10 µM
S. aureus RN4220 = assay: growth inhibition call (relative growth <= 0.2); settings: 50 µM

Compound	cytotoxicity call (HSkMC)	cytotoxicity call (HepG2)	growth inhibition call (S. aureus RN4220)
C[C@@H]1CN([C@H](C)CO)C(=O)c2cc(NC(=O)CCCCCC(=O)Nc3ccccc3N)ccc2O[C@H]1CN(C)C(=O)Nc1ccc(C(F)(F)F)cc1	inactive	inactive	inactive
C[C@H]1CN([C@@H](C)CO)C(=O)c2cccc(NC(=O)C3CC3)c2O[C@H]1CN(C)Cc1ccc(-c2ccccc2)cc1	inactive	inactive	inactive
NCc1ccnc(N2CCCC2)c1	inactive	inactive	inactive
O=C(C[C@H]1C=C[C@@H](NC(=O)c2cccnc2)[C@H](CO)O1)NCCN1CCCCC1	inactive	inactive	inactive
Cc1ccc(S(=O)(=O)Nc2ccc3c(c2)C(=O)N([C@@H](C)CO)C[C@H](C)[C@@H](CN(C)Cc2ccc(Cl)c(Cl)c2)OCCCC[C@H](C)O3)cc1	active	active	inactive
